Measurements: PubChem BioAssay AID686971 (National Center for Advancing Translational Sciences (NCATS), 2013)
Where “and” joins values, the source holds several entries; their conditions need not be identical. Equal values may be shown once. The campaign covered roughly 360,000 compounds. About 7,500 (2.1%) were called active. This list was built around the results that the source calls inconclusive (neither active nor inactive); the mix of calls is not that of the screen. Calls follow the shape of the dose curve; as a rule, active = well fitted cell-killing curve with a large enough effect; inconclusive = small, poorly fitted or top-dose-only effect, or effect the other way, or another doubt; inactive = no such curve, though single readings can be large or run the other way. Potencies of inconclusive entries are left out as doubtful fits.

Test: qHTS for induction of synthetic lethality in tumor cells producing 2HG: qHTS for the HT-1080-IDH1KD cell line;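 as to activity, negative = toxicity: 0% = DMSO wells and -100% = cell-free medium wells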
Settings: HT-1080 IDH1 knockdown viability, ATP luminescence, 48 h; activity, negative = toxicity: at 46.1 µM (top of the series) unless noted
Method in brief: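 Viability of IDH1-knockdown HT-1080 fibrosarcoma cells was assessed by CellTiter-Glo after 48 h at 37 °C with titrated compound; concentration-effect curves were classified by fit quality and response size.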
Potency is read from the fitted curve at half-maximal effect; tags tell the direction and shape of the fitted curve.

SMILES	Potency	activity, negative = toxicity
CC(C)C(N)c1csc(Nc2ccc(C(F)(F)F)cn2)n1 (stereo not given)	inconclusive [cytotoxic, single point]	
COc1ccc(CSCC(=O)N/N=C/c2ccccc2O)cc1	inconclusive [cytotoxic, partial curve]	
COc1ccc(C(=O)/C=C/C(=O)N(CC(=O)NC2CCCCC2)Cc2ccccc2)c(O)c1	active: 3.66 µM	
O=[N+]([O-])c1cc(NS(=O)(=O)c2ccc(Cl)nc2)ccc1Cl	inconclusive [cytotoxic, single point]	
COc1ccccc1NC(=O)c1cnc(Nc2ccccc2OC)c2ccccc12	inconclusive [cytotoxic, full curve]	
C[C@]12c3[nH]c4cc(-c5ccco5)ccc4c3CCN1C(=O)[C@@H](CC(=O)NCC13CC4CC(CC(C4)C1)C3)C[C@@H]2C(=O)N1CCOCC1	active: 18.4 µM	
O=C(Nn1cnnc1)c1ccc(Cl)cc1[N+](=O)[O-]	inactive	
Cc1cc(C)nc(SCC(=O)Nc2ccc(S(=O)(=O)NCCO)cc2)n1	inactive	
COC(=O)Nc1nc2ccc(Sc3ccccc3)cc2[nH]1	active: 0.82 µM	
Oc1ccccc1N=Nc1ccccc1O	inconclusive [cytotoxic, full curve]	
Cc1ccc(NC(=O)NC2CC(=O)N(c3ccc4c(c3)OCCO4)C2)cc1F (stereo not given)	inactive	
CC(=O)NC(c1ccccc1)c1nc(-c2cc3ccccc3o2)cs1 (stereo not given)	inactive	
CCN1CCN(c2cc3nc(C)n(Cc4ccccc4)c(=O)c3cc2NC(=O)c2ccccc2F)CC1	active: 20.6 µM	
CC1CCCCC1NC(=O)c1c(O)nc2ccccn2c1=O (stereo not given)	inactive	
Cn1c(CN2CCCC2)nc2cc(NC(=O)COc3ccc(Cl)cc3)ccc21	inconclusive [cytotoxic, single point]	
Cc1nn(-c2ccc(N3CCOCC3)nn2)c(C)c1CCC(=O)NCc1ccccc1F	inactive	
CN=C(Nc1cc(Cl)ccc1Cl)SC1CC(=O)N(c2ccc(C(=O)OC)cc2)C1=O (stereo not given)	inconclusive [cytotoxic, single point]	
O=C(Nc1sc2c(c1C(=O)O)CCCCC2)c1ccccc1F	inconclusive [cytotoxic, single point]	
COc1cc(N(C)C)ccc1C=c1c2ccccc2n2c1cc(-c1ccccc1)[n+]2C	active: 11.6 µM	
CN(C)c1cc2c(c(N(C)C)c1)C(=O)c1ccccc1C2=O	inconclusive [cytotoxic, single point]	
O=C1CS(=O)(=O)N(Cc2cccc(F)c2)c2ccc(Br)cc21	inconclusive [cytotoxic, partial curve]	
Cc1cccc(N=C2NN=C(c3ccc4c(c3)OCCO4)CS2)c1	inconclusive [cytotoxic, single point]	
CCc1nc(N)nc(N)c1-c1ccc(Cl)c(N=[N+]=[N-])c1	active: 5.17 µM and active: 2.91 µM	

SMILES	Potency	activity, negative = toxicity
Cn1c(SCc2cccc3ccccc23)nnc1-c1ccco1	inconclusive [cytotoxic, single point]	
O=C(COC(=O)c1cncc(Br)c1)NCc1ccccc1	inconclusive [rising, partial curve]	
O=C(NCC1CC1)c1cc2c(c(-c3cccc(-c4ccccc4F)c3)n1)[C@@H](CCO)N(C(=O)CC1CC1)C2	inconclusive [cytotoxic, single point]	
COc1ccc(Cl)cc1Cn1c(C)c(C(=O)NCc2ccc(F)cc2)sc1=O	inconclusive [cytotoxic, single point]	
COc1ccccc1NC(=S)N(Cc1ccco1)Cc1cc2cc(C)ccc2[nH]c1=O	inconclusive [cytotoxic, partial curve]	
Cc1ccc(OCCSCc2nc3ccccc3[nH]2)cc1	inconclusive [cytotoxic, single point]	
Cc1c(C(=O)NCc2ccc(Cl)c(Cl)c2)sc(=O)n1Cc1ccc(S(=O)(=O)N(C)C)cc1	inconclusive [cytotoxic, partial curve]	
Cc1ccc(S(=O)(=O)Nc2cccc(C(=O)NCc3ccccn3)c2)cc1F	inactive	
NC(=NCCc1c[nH]c2ccccc12)NC(=O)c1ccc(F)cc1	inconclusive [cytotoxic, single point]	
COc1cc(C2C3=C(COC3=O)Oc3cc4c(cc32)OCO4)cc(OC)c1OC(C)=O (stereo not given)	inconclusive [cytotoxic, full curve]	
CC(c1ccccc1C(O)(c1ccccc1)c1ccccc1)N(C)C (stereo not given)	inconclusive [cytotoxic, single point]	
COc1cc(/C=C/C(=O)Nc2nc3ccc(S(=O)(=O)N(C)C)cc3s2)cc(OC)c1OC	active: 6.51 µM	
Cc1ccc2c(c1)[C@@H]1CN(C)CC[C@@H]1N2S(=O)(=O)c1ccc([N+](=O)[O-])cc1	inactive	
COc1ccccc1Cc1c(-c2ccc(F)cc2)nc2ccc(Cl)cn12	inactive	
Cc1cccc2c(=O)cc(C(F)(F)F)[nH]c12	inconclusive [cytotoxic, single point]	
COc1ccc(CC(N)c2csc(Nc3nc(C)cnc3C)n2)cc1 (stereo not given)	inconclusive [cytotoxic, single point]	
CCOC(=O)c1cnn(-c2ncnc3c2oc2ccccc23)c1N		inconclusive: 19.3%
CC(=O)Nc1ccccc1OCC(=O)c1cc(C)n(Cc2cccs2)c1C	active: 2.59 µM	
CCn1c(C)cc(/C=C2\NC(=O)N(Cc3ccc(Cl)cc3)C2=O)c1C	inconclusive [cytotoxic, single point]	
Clc1ccc2c(N/N=C/c3cccc(Br)c3)ccnc2c1	inconclusive [cytotoxic, single point]	
Cc1cccc(NC(=S)NNC(=O)c2csc3c2CCC(C)C3)c1 (stereo not given)	inconclusive [cytotoxic, single point]	
CN(C)/C=N/C(=S)Nc1ccc(Cl)c(Cl)c1		inconclusive: -2.86% [cytotoxic]
